The supplement of paper PMC8728848
The list shows a part of the results.

Assays:
Experiment in all cases: glycan array binding signal (z-score within array); higher = stronger binding
Conditions in all cases: glycan notation: IUPAC condensed, linker removed
Neu(a2-3)Gal(b1-4)Glc = biological target: Neu(a2-3)Gal(b1-4)Glc
How it was run: (§1)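 Glycan array data were curated from 3228 arrays in the Consortium for Functional Glycomics database and kept only where the protein sequence was available. Glycan names were converted to IUPAC-condensed notation, and columns mapping to the same glycan were averaged. The binding signal is a within-array Z-score, averaged across arrays of the same protein sequence at different concentrations or buffers and across linkers. Negative Z-scores can be read as non-binding.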

[1] = biological target: Neu(a2-3)Gal(b1-4)GlcNAc(b1-3)Gal(b1-4)[Fuc(a1-3)]GlcNAc(b1-3)Gal(b1-4)Glc
How it was run: as §1

[2] = biological target: Neu(a2-3)Gal(b1-4)GlcNAc6S(b1-3)Gal(b1-4)Glc
How it was run: as §1

[3] = biological target: Neu(a2-3)Gal(b1-4)[Fuc(a1-3)]GlcNAc(b1-3)Gal(b1-4)Glc
How it was run: as §1

[4] = biological target: Neu(a2-3)Gal(b1-4)[Fuc(a1-3)]GlcNAc6S(b1-3)Gal(b1-4)Glc
How it was run: as §1

[5] = biological target: Neu(a2-3)Gal6S(b1-4)[Fuc(a1-3)]GlcN(b1-3)Gal(b1-4)Glc
How it was run: as §1

Neu(a2-6)Gal(b1-4)Glc = biological target: Neu(a2-6)Gal(b1-4)Glc
How it was run: as §1

[6] = biological target: Neu4Ac5Ac(a2-3)Gal(b1-4)Glc
How it was run: as §1

[7] = biological target: Neu4Me5Ac(a2-3)Gal(b1-4)Glc
How it was run: as §1

Neu5Ac(a2-2)Glc = biological target: Neu5Ac(a2-2)Glc
How it was run: as §1

[8] = biological target: Neu5Ac(a2-3)4dGal(b1-4)[Fuc(a1-3)]GlcNAc(b1-3)Gal
How it was run: as §1

[9] = biological target: Neu5Ac(a2-3)6dGal(b1-4)[Fuc(a1-3)]GlcNAc(b1-3)Gal
How it was run: as §1

Neu5Ac(a2-3)Gal = biological target: Neu5Ac(a2-3)Gal
How it was run: as §1

[10] = biological target: Neu5Ac(a2-3)Gal(b1-3)6dGalNAc
How it was run: as §1

[11] = biological target: Neu5Ac(a2-3)Gal(b1-3)GalNAc
How it was run: as §1

[12] = biological target: Neu5Ac(a2-3)Gal(b1-3)GalNAc(b1-4)[Neu5Ac(a2-3)]Gal(b1-4)Glc
How it was run: as §1

[13] = biological target: Neu5Ac(a2-3)Gal(b1-3)GalNAc(b1-4)[Neu5Ac(a2-8)Neu5Ac(a2-3)]Gal(b1-4)Glc
How it was run: as §1

[14] = biological target: Neu5Ac(a2-3)Gal(b1-3)GalNAc6S
How it was run: as §1

[15] = biological target: Neu5Ac(a2-3)Gal(b1-3)GalNAc6S(b1-4)Gal(b1-4)Glc
How it was run: as §1

[16] = biological target: Neu5Ac(a2-3)Gal(b1-3)GlcNAc
How it was run: as §1

[17] = biological target: Neu5Ac(a2-3)Gal(b1-3)GlcNAc(b1-3)Gal(b1-4)Glc
How it was run: as §1

[18] = biological target: Neu5Ac(a2-3)Gal(b1-3)GlcNAc(b1-3)[Fuc(a1-3)[Gal(b1-4)]GlcNAc(b1-6)]Gal(b1-4)Glc
How it was run: as §1

[19] = biological target: Neu5Ac(a2-3)Gal(b1-3)[Fuc(a1-3)]GlcN(b1-3)Gal(b1-4)Glc
How it was run: as §1

[20] = biological target: Neu5Ac(a2-3)Gal(b1-3)[Fuc(a1-4)]GlcNAc
How it was run: as §1

[21] = biological target: Neu5Ac(a2-3)Gal(b1-3)[Fuc(a1-4)]GlcNAc(b1-3)Gal(b1-4)Glc
How it was run: as §1

[22] = biological target: Neu5Ac(a2-3)Gal(b1-3)[Neu5Ac(a2-6)]GalNAc
How it was run: as §1

[23] = biological target: Neu5Ac(a2-3)Gal(b1-3)[Neu5Ac(a2-6)]GalNAc(b1-4)Gal(b1-4)Glc
How it was run: as §1

[24] = biological target: Neu5Ac(a2-3)Gal(b1-3)[Neu5Ac(a2-6)]GlcNAc(b1-3)Gal(b1-4)Glc
How it was run: as §1

Neu5Ac(a2-3)Gal(b1-4)Glc = biological target: Neu5Ac(a2-3)Gal(b1-4)Glc
How it was run: as §1

[25] = biological target: Neu5Ac(a2-3)Gal(b1-4)GlcNAc
How it was run: as §1

[26] = biological target: Neu5Ac(a2-3)Gal(b1-4)GlcNAc(b1-2)Man(a1-3)[Neu5Ac(a2-3)Gal(b1-4)GlcNAc(b1-2)Man(a1-6)]Man(b1-4)GlcNAc(b1-4)[Fuc(a1-6)]GlcNAc
How it was run: as §1

[27] = biological target: Neu5Ac(a2-3)Gal(b1-4)GlcNAc(b1-3)Gal(b1-4)Glc
How it was run: as §1

[28] = biological target: Neu5Ac(a2-3)Gal(b1-4)GlcNAc(b1-6)GalNAc(a1-3)Gal(b1-4)Glc
How it was run: as §1

[29] = biological target: Neu5Ac(a2-3)Gal(b1-4)GlcNAc6S(b1-3)Gal6S(b1-3)GlcNAc6S
How it was run: as §1

[30] = biological target: Neu5Ac(a2-3)Gal(b1-4)[3dFuc(a1-3)]GlcNAc(b1-3)Gal
How it was run: as §1

[31] = biological target: Neu5Ac(a2-3)Gal(b1-4)[4dFuc(a1-3)]GlcNAc(b1-3)Gal
How it was run: as §1

[32] = biological target: Neu5Ac(a2-3)Gal(b1-4)[6dTal(a1-3)]GlcNAc(b1-3)Gal
How it was run: as §1

[33] = biological target: Neu5Ac(a2-3)Gal(b1-4)[Fuc(a1-3)]Glc
How it was run: as §1

[34] = biological target: Neu5Ac(a2-3)Gal(b1-4)[Fuc(a1-3)]GlcNAc
How it was run: as §1

[35] = biological target: Neu5Ac(a2-3)Gal(b1-4)[Fuc(a1-3)]GlcNAc(b1-3)Gal
How it was run: as §1

[36] = biological target: Neu5Ac(a2-3)Gal(b1-4)[Fuc(a1-3)]GlcNAc(b1-3)Gal(b1-4)Glc
How it was run: as §1

[37] = biological target: Neu5Ac(a2-3)Gal(b1-4)[Fuc(a1-3)]GlcNAc(b1-3)Gal(b1-4)[Fuc(a1-3)]GlcNAc(b1-3)Gal(b1-4)Glc
How it was run: as §1

[38] = biological target: Neu5Ac(a2-3)Gal(b1-4)[Fuc(a1-3)]GlcNAc(b1-4)GalNAc(b1-3)Gal(b1-4)Glc
How it was run: as §1

[39] = biological target: Neu5Ac(a2-3)Gal(b1-4)[Fuc(a1-3)]GlcNAc(b1-6)Gal(b1-4)Glc
How it was run: as §1

[40] = biological target: Neu5Ac(a2-3)Gal(b1-4)[Fuc(a1-3)]GlcNAc6S(b1-3)Gal(b1-4)Glc
How it was run: as §1

Measured: glycan array binding signal (z-score)

B1: HysACBM (Streptococcus pneumoniae), Q54873 (protein)
chain: KNLVENGDFGQTEDGSSPWTGSKAQGWSAWVDQKNSADASTRVIEAKDGAITISSHEKLRAALHRMVPIEAKKKYKLRFKIKTDNKIGIAKVRIIEESGKDKRLWNSATTSGTKDWQTIEADYSPTLDVDKIKLELFYETGTGTVSFKDIELVEVADQLS
0.258: Neu(a2-3)Gal(b1-4)Glc | [4]
-0.049: Neu5Ac(a2-3)Gal
-0.054: [23]
-0.063: [36]
-0.007: [20]
0.823: Neu(a2-6)Gal(b1-4)Glc
-0.045: [9]
-0.052: [27]
-0.069: Neu5Ac(a2-3)Gal(b1-4)Glc
-0.091: all other assays above
